Test results as given in article PMC7819943, “Rice protein-binding microarrays: a tool to detect cis-acting elements near promoter regions in rice”.
The list shows a part of the results.

molecular target: T1, OsWOX13 (Oryza sativa, UniProt Q5QMM3 1-267); experiment: protein-binding microarray (RPBM); PBS, 2% BSA, 51.3 ng/ul salmon testes DNA, 50 uM zinc acetate, 200 nM TF, 25 C, 1 h; high values mean tight binding; settings: protein: recombinant; tags: N-terminal polyhistidine and DsRed monomer fusion (pET32a); label: CyDye5-dUTP incorporated in the synthesized complementary strand; 3' TTTTT single-stranded linker to array surface; dsDNA, one strand shown
T1 sequence: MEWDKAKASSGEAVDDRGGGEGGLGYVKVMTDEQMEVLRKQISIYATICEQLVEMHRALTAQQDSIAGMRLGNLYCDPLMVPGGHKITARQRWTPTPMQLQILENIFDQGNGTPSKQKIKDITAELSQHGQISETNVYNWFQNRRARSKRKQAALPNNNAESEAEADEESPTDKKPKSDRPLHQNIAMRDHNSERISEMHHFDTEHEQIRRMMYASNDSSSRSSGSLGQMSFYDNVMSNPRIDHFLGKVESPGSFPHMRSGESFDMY
Summary of the method: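 Per-feature fluorescence intensity (arbitrary units), read on an Axon 4000B scanner, is the binding signal. Transcription factors carrying an N-terminal polyhistidine tag and DsRed fusion were expressed in E. coli BL21-CodonPlus and purified on Ni–NTA. A custom Agilent array, made double-stranded by primer extension with Cy5-dUTP and blocked with 2% BSA, was incubated with 200 nM protein in PBS, 2% BSA, salmon testes DNA and 50 µM zinc acetate at 25 °C for 1 h and then washed.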

Row | Sequence | binding signal
1 | TTTCATTTAAATTATCAATTTAATTATAGAGATAAATTAACGGAGTCACCTAGTGCAG | 20300 fluorescence intensity (a.u.)
2 | TAAGGGTTAATTGGGCCGAAGAAAGGCGTCGGGTGTTAAGCGGAGTCACCTAGTGCAG | 8950 fluorescence intensity (a.u.)
3 | GGGAATTTGTGATTTGTAGTAGTATATATATTTAAATTTGCGGAGTCACCTAGTGCAG | 24000 fluorescence intensity (a.u.)
4 | TAATAACAAATTGGATATACAAGAACATAAAACTTGGTACCGGAGTCACCTAGTGCAG | 8860 fluorescence intensity (a.u.)
5 | AAGAAAGAGTGATTATCTCACCATTTGACTTACCAAGCCTCGGAGTCACCTAGTGCAG | 3250 fluorescence intensity (a.u.)
6 | TGCCGTTTTGTAATTGAATTGCTTGTTAATTCATGTTCAACGGAGTCACCTAGTGCAG | 7350 fluorescence intensity (a.u.)
7 | TTCCCGCGTTTAATTAGTACGTATCACCTCTCATGCATTTCGGAGTCACCTAGTGCAG | 8190 fluorescence intensity (a.u.)
8 | TATGATTGTGGCGCCATTGACGTTTACGATATCCTGTGAACGGAGTCACCTAGTGCAG | 23700 fluorescence intensity (a.u.)
9 | TCCTGAAGATGACTGGAACATGACTGTGGATCTGCATAAACGGAGTCACCTAGTGCAG | 6160 fluorescence intensity (a.u.)
10 | AATTAATTAATTAACCATATGTACTTCACACATATATTAACGGAGTCACCTAGTGCAG | 28400 fluorescence intensity (a.u.)
11 | AATTGGCAATAAATTAGATGTCACTAGAGTAAATTAGTAGCGGAGTCACCTAGTGCAG | 8860 fluorescence intensity (a.u.)
12 | AAGGAGCTGATTTGCACCGATTTATGAAGTACCTAGTTTTCGGAGTCACCTAGTGCAG | 3980 fluorescence intensity (a.u.)
13 | TCAGTACCTCTAATTGGCCCGTTGGCTTTTGTTTCAGAAACGGAGTCACCTAGTGCAG | 3730 fluorescence intensity (a.u.)
14 | TTGTCAAATTATGGTACAATTAGGCTTAAAAGATTCATATCGGAGTCACCTAGTGCAG | 3790 fluorescence intensity (a.u.)
15 | ACTTGTATTTACGGCTAATTATATTTTCAGTGATAGGCGACGGAGTCACCTAGTGCAG | 14100 fluorescence intensity (a.u.)
16 | CTTGATTTCGTTGTTTCGTTTTGCGTGCAATGGGGAAGTGCGGAGTCACCTAGTGCAG | 11300 fluorescence intensity (a.u.)
17 | ACAAGTAATCAAAGACGGCATGACACGTAGCTTTCTAGACCGGAGTCACCTAGTGCAG | 3980 fluorescence intensity (a.u.)
18 | AGACGATCTCATGACATTAATTTGACCATCATTAGGCCTACGGAGTCACCTAGTGCAG | 3840 fluorescence intensity (a.u.)
19 | GGCAATCTTCTGATTACCGGCGGCTGCAGTGTTTTCTGATCGGAGTCACCTAGTGCAG | 3870 fluorescence intensity (a.u.)
20 | TCAATTATAAATTTAATGAAACTATGCAAATATTACTACTCGGAGTCACCTAGTGCAG | 14000 fluorescence intensity (a.u.)
21 | CCATCTGCTGATAGATTTTCTATTGCCAAATCTTACACCTCGGAGTCACCTAGTGCAG | 5710 fluorescence intensity (a.u.)
22 | TCCTGTATTATTTTACCGTCTGATTTACTGCATGTGAGCTCGGAGTCACCTAGTGCAG | 4270 fluorescence intensity (a.u.)
23 | TGGATTGAGATATTTATTTATGATGATCACATCTGCACCTCGGAGTCACCTAGTGCAG | 9980 fluorescence intensity (a.u.)
24 | GAGTATTATAATTATCTTTTGTAAATCTTAAATTTTGCTACGGAGTCACCTAGTGCAG | 8850 fluorescence intensity (a.u.)
25 | GTGAGTAATTAATACCAATGCTTCTTCTTTTCTCCCTTACCGGAGTCACCTAGTGCAG | 6680 fluorescence intensity (a.u.)
26 | ATCCACTGTTTGTGAATTGTCAATTTGTCATGCGTTGTACCGGAGTCACCTAGTGCAG | 4140 fluorescence intensity (a.u.)
27 | TCCATGATTAGCCATAAGTGTTACGTAACCCACATGTGCTCGGAGTCACCTAGTGCAG | 32500 fluorescence intensity (a.u.)

Row | Sequence | binding signal
28 | TGTGATTGGAGGCTGGCAGAGAGGCGAGATCGGTCGGCGGCGGAGTCACCTAGTGCAG | 45000 fluorescence intensity (a.u.)
29 | ATGCATGATTTGATAAGAGAGTTCTCAGTTGCTGTTTCTTCGGAGTCACCTAGTGCAG | 15600 fluorescence intensity (a.u.)
30 | AAACTTTTGATTTATAAACTTTTGGTCTCTAAACTTTAGACGGAGTCACCTAGTGCAG | 6990 fluorescence intensity (a.u.)
31 | GCATCAATAACACCAAGATGACACAAAATGCACACCATGTCGGAGTCACCTAGTGCAG | 4170 fluorescence intensity (a.u.)
32 | TCAAATTTATTGTCAGATGTAAACAAAGCCAAAATTATGTCGGAGTCACCTAGTGCAG | 4230 fluorescence intensity (a.u.)
33 | TCAGATTGATGGCCATACCATTATTTGGTTGATAATTACGCGGAGTCACCTAGTGCAG | 32000 fluorescence intensity (a.u.)
34 | TGTGAAATAAATTATTTAATTACTACATGGAAATAAAGTTCGGAGTCACCTAGTGCAG | 11500 fluorescence intensity (a.u.)
35 | ATTCAAATTTGTCAAACATTGTTTTCTTCTCTTTCATATCCGGAGTCACCTAGTGCAG | 5020 fluorescence intensity (a.u.)
36 | GAGCTGTTGGGAGGCCGTGCTGGTACCGGAGAGGAGAGGGCGGAGTCACCTAGTGCAG | 4760 fluorescence intensity (a.u.)
37 | TCCCGGCCGGCCTGATTGGGTTATCTTATCCTCAGTCCTGCGGAGTCACCTAGTGCAG | 5930 fluorescence intensity (a.u.)
38 | GTAACAAATTAGCAATCCTCATATACTACTACTAAAGATTCGGAGTCACCTAGTGCAG | 14800 fluorescence intensity (a.u.)
39 | TAATTACCTAGATTGTGTGTAAATTGCGAGACGAATATTTCGGAGTCACCTAGTGCAG | 4920 fluorescence intensity (a.u.)
40 | TTATCAATCTAGGAGAGAGATTTCGCAGGCACGGAATTAGCGGAGTCACCTAGTGCAG | 9560 fluorescence intensity (a.u.)
41 | TTTAAATGAATGGCAGGAAAATCTGACTTGGTAGTCCTGACGGAGTCACCTAGTGCAG | 4910 fluorescence intensity (a.u.)
42 | ATAGATAGATAGATAGATAGATAGATTGATCGATCGATCGCGGAGTCACCTAGTGCAG | 55400 fluorescence intensity (a.u.)
43 | TCGCTAATTAACAAGTCGGTCAACTCCAAGTTAACTTGCTCGGAGTCACCTAGTGCAG | 26200 fluorescence intensity (a.u.)
44 | ATGATTGTCTATTCCTCTGTCCAGGAGAGAACAGAGTATTCGGAGTCACCTAGTGCAG | 22100 fluorescence intensity (a.u.)
45 | ATAGTGATTTAAAATTTTAAATTTCATCTAAAGCAAGAAACGGAGTCACCTAGTGCAG | 16900 fluorescence intensity (a.u.)
46 | AATAATTCCATTGAATTTACACACTTACATTATAGTGCCTCGGAGTCACCTAGTGCAG | 3370 fluorescence intensity (a.u.)
47 | ATTGTCTTGATTATAACCTCCGAGAGATATGATGTTGCAACGGAGTCACCTAGTGCAG | 8440 fluorescence intensity (a.u.)
48 | ACTCCAATTAGAAAGACATTTATTTATATCCGTTATGTAACGGAGTCACCTAGTGCAG | 10900 fluorescence intensity (a.u.)
49 | TGCACCTAATTGTATCCACCTGCCAAGTTCTTATACAGCCCGGAGTCACCTAGTGCAG | 6280 fluorescence intensity (a.u.)
50 | TAGATTGATTGTTACTCCGTACATAACCTTGTCTTCTTCGCGGAGTCACCTAGTGCAG | 55400 fluorescence intensity (a.u.)
51 | ACTGATAGCTAAATACAGTGACATATATTAACTATTTCTTCGGAGTCACCTAGTGCAG | 4970 fluorescence intensity (a.u.)
52 | GTATGGATTGAAGGTAACGTAGCATTTGCCTTCACCACAACGGAGTCACCTAGTGCAG | 5030 fluorescence intensity (a.u.)
53 | ATTGCAATAATTATTCTTCTCTTTAGCAGCTACCCCTTCACGGAGTCACCTAGTGCAG | 7430 fluorescence intensity (a.u.)
54 | GACGAATTACTTGTTTAAACGAAACGGATTGGGGTTTTCTCGGAGTCACCTAGTGCAG | 3940 fluorescence intensity (a.u.)
